Molecules are shown by their SMILES. The campaign covered roughly 150,000 compounds. About 540 (0.36%) showed an effect of 50% or more. This is one part of the list.

In this test the test system is Plasmodium falciparum. Description: Primary screen in NF54 nanoGlo assay, in single point, at 2uM, 72h; a lower Z score goes with more inhibition. Format: functional, Erythrocyte. The note with it: timepoint 72 hour.
For `COc1ccc(CCC(=O)N2CCC[C@H]2c2cccs2)cc1`, the “% Inhibition” value was -8% and the Z score turned out to be 1.56.

Consider `O=C(c1ccco1)N1CCC(Oc2nncs2)CC1`, for which the “% Inhibition” value is listed as 11% and the Z score is -1.35.

For the molecule `CC(=O)N1CCCC1C1CCCN1c1ncnc2ccccc12` (stereo not drawn), the “% Inhibition” value was 12% and the Z score was -1.6.

`CC1CN(c2cc(Cl)ccc2Cl)CCN1CC1CNC(=O)C1` (stereo not drawn): the “% Inhibition” value is given as 1% and the Z score was -0.25.

As for `O=C(CCC1CCCC1)Nc1ccncc1`, the “% Inhibition” value is listed as -12% and the Z score was found to be 1.57.

As for `O=C1CN(S(=O)(=O)c2ccccc2Cl)C[C@H]2c3ccccc3CCN12`, the “% Inhibition” value is -2% and the Z score is listed as 0.33.

`COc1ccc2cc(-c3nc(CCN(C)C(=O)c4ccco4)no3)[nH]c2c1`: the “% Inhibition” value was -15% and the Z score worked out at 2.89.

Regarding `O=C(NC1CCC1)[C@H]1C[C@@H](c2ccccc2)N2CCC[C@H]12`, the “% Inhibition” value is -9% and the Z score stood at 1.63.

In the case of `Cc1nc[nH]c1-c1nccn1CCc1cnn(-c2ccccc2)c1`, the “% Inhibition” value is -26% and the Z score stood at 3.39.

Consider `COc1ccc(-c2csc(N(c3ccccc3Cl)[C@@H](C)C(=O)N(C)C)n2)cc1`, for which the “% Inhibition” value is listed as -2% and the Z score was found to be 0.3.

Take `O=C(CN1CCOCC1)N1CCc2cc(Br)ccc21`: the “% Inhibition” value is reported as -24% and the Z score is recorded as 2.19.

For the molecule `O=C(NC1CC[C@@H](O)[C@@H](O)C1)c1ccc(OC(F)F)cn1` (stereo partly drawn), the “% Inhibition” value amounted to 4% and the Z score was -0.43.

Consider `Nc1nc(N2CCC(Cc3ccccc3)CC2)nc2c1[C@H](C(=O)Nc1ccc3c(c1)OCO3)CC(=O)O2`, for which the “% Inhibition” value is given as -15% and the Z score came out at 1.65.

For `Clc1ccc(COc2ccccc2CNCc2ccc3c(c2)OCO3)c(Cl)c1`, the “% Inhibition” value is reported as -11% and the Z score is recorded as 1.09.

Take `Cc1nc(C(=O)NCCc2c[nH]c3ccccc23)c(C)s1`: the “% Inhibition” value turned out to be 12% and the Z score is -1.81.

Consider `CC[C@H](C)NC(=O)c1coc(CN(Cc2ccc(F)cc2)Cc2ccc(F)cc2)n1`, for which the “% Inhibition” value is reported as 3% and the Z score was -0.45.

In the case of `O=C(NCc1ccccc1C(F)(F)F)c1cc2n(n1)C[C@@H](c1ccc3c(c1)OCO3)OC2`, the “% Inhibition” value is on record as -20% and the Z score amounted to 1.81.

As to `COc1ccc(/C=C/CN2CCC(Oc3cc(OC)ccc3C(=O)N3CCCC3)CC2)cc1`, the “% Inhibition” value was 1% and the Z score is -0.07.

For `CCCN(CC(=O)N1CCc2sccc2C1COc1ccc(C)cc1C)CC(C)O` (stereo not drawn), the “% Inhibition” value was -14% and the Z score was 1.31.

Take `C#CCNC(=O)c1ccc(N2CCn3c(nnc3C(F)(F)F)C2)nc1`: the “% Inhibition” value is reported as -2% and the Z score is 0.23.

For the molecule `COC(=O)C1CCCN1CC(=O)N1C(C)CCCC1C` (stereo not drawn), the “% Inhibition” value was found to be 3% and the Z score is recorded as -0.29.

Take `Cc1nc2ncc(-c3cnc4c(C)cccc4c3)cn2n1`: the “% Inhibition” value is reported as 11% and the Z score is reported as -1.4.

As to `Cc1cc(C)cc(N(C)S(=O)(=O)c2ccsc2-c2nc(-c3ccccc3C)no2)c1`, the “% Inhibition” value was -12% and the Z score is on record as 1.69.

Turning to `O=C(OCC(=O)N(C1CCCCC1)[C@H]1CCS(=O)(=O)C1)c1cccc(F)c1`, the “% Inhibition” value was 6% and the Z score is -1.1.

On to `NC1COCC1Oc1ccc2ccccc2n1` (stereo not drawn), for which the “% Inhibition” value was -7% and the Z score is on record as 1.05.

`COc1cccc(-c2ncc(CN3CCC(Cc4nncn4C)CC3)s2)c1`: the “% Inhibition” value is recorded as -11% and the Z score amounted to 2.11.

For `Cc1ccc2c(c1)CCCN2C(=O)c1cnn2c1OCCC2`, the “% Inhibition” value is recorded as -12% and the Z score is listed as 2.13.

On to `Cc1[nH][nH]c(=O)c1CC(=O)NCc1cccnc1Oc1ccc(F)c(F)c1`, for which the “% Inhibition” value is -9% and the Z score is 1.01.

For the molecule `Cc1nc[nH]c1C(=O)NCC1CCN(c2ncnc(C)c2C)CC1`, the “% Inhibition” value is listed as -1% and the Z score came out at 0.08.

As for `O=S(=O)(c1cncc(F)c1)N1CCC[C@H](Cn2cncn2)C1`, the “% Inhibition” value is given as -9% and the Z score amounted to 1.11.

For `COc1ccsc1S(=O)(=O)N(C)Cc1scnc1C`, the “% Inhibition” value was -2% and the Z score worked out at 0.21.

`Cc1cc(C(=O)N2Cc3cnn(CCO)c3C2)cc2sc(N)nc12`: the “% Inhibition” value was -4% and the Z score is listed as 0.67.

For the molecule `Cc1cccc(C2CC(NCC3(C(N)=O)CCOCC3)C2)c1` (stereo not drawn), the “% Inhibition” value was -5% and the Z score was 0.59.

For `Cc1ccc2oc(-c3nccn3CCN(C)S(C)(=O)=O)c(C)c2c1`, the “% Inhibition” value was -3% and the Z score is given as 0.42.

Take `CCN(CCC1CCN(C(=O)Nc2ccc3c(c2)OCO3)CC1)CC1CC1`: the “% Inhibition” value was -12% and the Z score is on record as 2.25.

Take `Cc1c(NS(=O)(=O)c2coc3ccccc23)noc1C(C)(C)C`: the “% Inhibition” value is -15% and the Z score is on record as 3.02.

Take `CCOC(=O)[C@@H]1CCCCN1Cc1cn(CCc2ccnn2C)nn1`: the “% Inhibition” value was -3% and the Z score was found to be 0.46.

In the case of `CN(CC1(N(C)C)CCC1)C(=O)Nc1nnc(C(F)F)s1`, the “% Inhibition” value is reported as -12% and the Z score was 1.23.

`O=C(NC1CCCCc2cc(Br)ccc21)N[C@@H]1CCOC1` (stereo partly drawn): the “% Inhibition” value is given as 7% and the Z score is reported as -0.98.

Turning to `CCOc1ccccc1CNC(=O)C1CCN(c2ccc(-c3cccs3)nn2)CC1`, the “% Inhibition” value is given as -10% and the Z score is on record as 1.96.

As for `CCCc1nc(C(=O)NC[C@H]2CN(c3nncs3)CCO2)co1`, the “% Inhibition” value is on record as -4% and the Z score worked out at 0.55.

As to `Cc1c(C2CCCC2)nc(N)c(C#N)c1-c1cnc(NC[C@H]2CCCO2)nc1`, the “% Inhibition” value was -9% and the Z score worked out at 1.51.

As to `O=C(NC[C@H]1CCCO1)c1cc(S(=O)(=O)N2CCCCC2)ccc1Cl`, the “% Inhibition” value was -8% and the Z score turned out to be 1.03.

Consider `Cc1cc(C(=O)N[C@H]2CCN(Cc3ccccn3)C[C@@H]2O)c(C)o1`, for which the “% Inhibition” value came out at 1% and the Z score is listed as -0.09.

On to `O=C(CN1C(=O)c2ccccc2C1=O)Nc1ccc(F)c(S(=O)(=O)Nc2cccc(C(F)(F)F)c2)c1`, for which the “% Inhibition” value was -2% and the Z score was 0.28.

For `Cn1cc(C(=O)NC2CC3CC3C2)c(-c2ccco2)n1` (stereo not drawn), the “% Inhibition” value is on record as -6% and the Z score was determined as 0.83.

Turning to `C=C[C@](C)(CC)C(=O)NCc1ncn(C)n1`, the “% Inhibition” value was -8% and the Z score is on record as 0.98.

With `CC(C)C[C@H](NC(=O)c1ccccn1)c1nc2ccccc2[nH]1`, the “% Inhibition” value was -11% and the Z score came to 1.35.

Consider `Cc1cc(OCC(=O)NC2CCCCC2C)nnc1C` (stereo not drawn), for which the “% Inhibition” value worked out at 8% and the Z score is -1.52.

For the molecule `O=C(O)c1ccc(CN2CC[C@H](c3ccccc3)[C@H](CO)C2)s1`, the “% Inhibition” value is reported as -4% and the Z score is 0.77.

In the case of `COCc1cnc(NC(=O)[C@@H]2CN(C(C)C)CCO2)s1`, the “% Inhibition” value is on record as -2% and the Z score was 0.21.

Regarding `O=C(NCCNc1cc(Nc2ccccn2)ncn1)c1cccc(Cl)c1`, the “% Inhibition” value came to 0% and the Z score came to 0.02.

Turning to `CC(C)c1ccc(CN2CCC[C@@]3(CCN(CCCn4cnnn4)C3)C2=O)cc1`, the “% Inhibition” value is -3% and the Z score is on record as 0.31.

As to `CC(C)Oc1ccccc1[C@H]1CC(=O)Nc2c1ncn2-c1cccnc1`, the “% Inhibition” value is listed as -11% and the Z score amounted to 1.45.

Usually % Inhibition stands for the change of the read-out against control, counted positive when it falls.
